From ChEMBL document CHEMBL1201862, “PubChem BioAssay data set” (2004)

What follows are compounds tested on NCI-H322M (assay: growth of human tumour cells (NCI), 48 h).

SMILES | GI50
CC1(C)CC(=O)c2c(nc3c(ccc4ccccc43)c2-c2ccc(NC(=O)CCCCCCCCC(=O)Nc3ccc(-c4c5c(nc6c4ccc4ccccc46)CC(C)(C)CC5=O)cc3)cc2)C1 | inactive: > 100 µM
Nc1ccc(/N=N/c2ccccc2)cc1 | inactive: 65.5 µM
CCc1nc(N)nc(N)c1-c1ccc(N(C)Cc2ccccc2)c([N+](=O)[O-])c1 | active: 0.184 µM
COc1ccc2c(c1)OC(c1cccnc1)C(c1ccccc1)C2=O (stereo unspecified) | inactive: > 100 µM
COc1cc(C2c3cc4c(cc3OC3(O)COC(=O)C23)OCO4)cc(OC)c1OC (stereo unspecified) | inactive: 44.5 µM
O=[N+]([O-])c1ccc(Sc2c3ccccc3nc3ccccc23)nc1 | inactive: 22.4 µM
CCOc1snc(C(Cl)(Cl)Cl)c1Cl | inactive: 31.7 µM
CCOC(=O)c1ccc(NC(=O)Oc2ccc3c(C)cc(=O)oc3c2)cc1 | inactive: 71 µM
O=C1C(Nc2ccccc2)=CC2=NCCc3n[nH]c1c32 | inactive: 44.9 µM
CO/C(C)=N/CCC1=CCCCC1 | inactive: > 100 µM
COc1ccc(/C(Cl)=C(\C=O)c2ccc([N+](=O)[O-])cc2)cc1OC | inactive: 15.1 µM
CCOC(=O)c1cnc2oc(-c3ccc(OC)cc3)nn2c1=O | inactive: > 100 µM
COc1cc(NCc2ccc3nc(OC)c(OC)nc3c2)cc(OC)c1OC | inactive: 70.8 µM
CCCCc1ccc(Nc2cc(=O)n(C)c(=O)[nH]2)cc1 | inactive: 54.5 µM
NCC(NC(=O)OCc1ccccc1)C(=O)O (stereo unspecified) | inactive: > 50 µM
Nc1ccc(C(=O)CC2(O)C(=O)Nc3ccccc32)cc1 (stereo unspecified) | inactive: > 100 µM
Cc1ccc([N+](=O)[O-])cc1S(=O)(=O)Nc1ccc(C2=NN(c3ccc([N+](=O)[O-])cc3[N+](=O)[O-])C(c3ccccc3)C2)cc1 (stereo unspecified) | inactive: 17 µM
O=[N+]([O-])c1cccc2nc3ccccc3c(NCCC[N+]3([O-])CCOCC3)c12 | active: 0.226 µM
S=c1sc2nc(Cl)nc(Cl)c2s1 | inactive: 17.1 µM
C/C(=N/NS(=O)(=O)c1ccc([N+](=O)[O-])cc1)c1cccc[n+]1[O-] | inactive: > 100 µM
O=C(Nc1ccccc1C(=O)NC(=O)c1ccccc1NC(=O)c1ccccc1)c1ccccc1 | inactive: 13.9 µM
COC(=O)C[C@@H]1C(C)(C)[C@@H]2O[C@@]34C[C@@H]2C(=O)[C@]1(C)[C@H]3CC[C@@]1(C)[C@H](c2ccoc2)OC(=O)C[C@]14O | inactive: > 100 µM
Cc1occc1C(=S)Nc1ccc(Cl)c(/C=N/OC(C)C)c1 | inactive: 21.8 µM

SMILES | GI50
Oc1c(C(Nc2ccccn2)c2ccccc2)ccc2cccnc12 (stereo unspecified) | inactive: 3.77 µM
CCn1c2ccccc2c2cc(NC(=O)c3c(C)nc(O)nc3NCCNCCO)ccc21 | inactive: > 100 µM
NC(=O)NC(=O)C1CCC(=O)N1S(=O)(=O)c1ccc(Cl)cc1 (stereo unspecified) | inactive: > 100 µM
O=C(CC(=O)N1N=C(N2CCCCC2)CC1c1ccccc1)Nc1ccccc1 (stereo unspecified) | inactive: > 100 µM
Cc1cccc(NC(=O)CC(=O)N2N=C(N3c4ccccc4Sc4ccccc43)CC2c2ccccc2)c1 (stereo unspecified) | inactive: > 100 µM
Nc1ccc(N)c2c1C(=O)c1ccccc1C2=O | inactive: 16.3 µM
O=C(OC[C@H]1C[C@H]2C(=O)CCC[C@H]2O1)c1ccccc1 | inactive: > 100 µM
O=C(O)Cc1cc(=O)[nH]c2c1C(=O)CCC2 | inactive: > 100 µM
CN(C)C(=S)/N=c1\ssc(=S)n1Cc1ccco1 | inactive: 5.97 µM
O=C(O)COc1cccc2ccccc(=O)c12 | inactive: > 100 µM
CC(=O)O[C@H]1C(=O)[C@@]2(C)[C@H]([C@H](OC(=O)c3ccccc3)[C@]3(O)C[C@H](OC(=O)[C@H](O)[C@@H](NC(=O)c4ccc(N)cc4)c4ccccc4)C(C)=C1C3(C)C)[C@]1(OC(C)=O)CO[C@@H]1C[C@@H]2O | active: < 0.005 µM
O=C1NC(N2CCCCC2)=N/C1=C\c1ccccc1O | inactive: > 100 µM
O=C(N/N=C/c1ccc2c(c1)OCO2)Nc1ccccc1Cl | inactive: 3.54 µM
COc1cc2cc3c4c(cc(OC)c(OC)c4c2cc1OC)CCN3 | inactive: 95.7 µM
COc1ccc2c(CCNS(=O)(=O)c3ccccc3)c(C(C)=O)[nH]c2c1 | inactive: > 100 µM
CSc1ccc2c(cc1=O)C(NC(=O)c1cc(O)c(OC(=O)O)c(O)c1)CCc1cc(O)c(O)c(O)c1-2 (stereo unspecified) | inactive: > 8.99 µM
CCCCCCCCCCCCCCCCCCOCC(O)CO (stereo unspecified) [BATILOL] | inactive: > 25 µM
CC12CC(=O)C3C(CCC4=CC(=O)CCC43C)C1CC=C2CC(=O)O (stereo unspecified) | inactive: > 100 µM
O=C(/C=C1\Sc2ccccc2N=C1CC(=O)c1ccccc1)c1ccccc1 | inactive: 14.2 µM
Cc1ccc(/C=C2\CCS(=O)(=O)c3ccccc3C2=O)cc1 | inactive: 19.2 µM
O=Cc1[nH]c2ccccc2c1Br | inactive: 38.5 µM
CCOC(=O)Cc1csc(Nc2ccc(OCC)cc2)n1 | inactive: > 100 µM
CC(C)c1cccc(C(C)C)c1NC(=O)C(=O)CC(=O)CC(c1ccccc1)c1c(O)oc2ccccc2c1=O (stereo unspecified) | inactive: > 100 µM

SMILES | GI50
CCCC(c1cc(C(C)(C)C)c(O)cc1C)c1cc(C(C)(C)C)c(O)cc1C | inactive: 4.15 µM
C[C@@H]1OC(=O)C[C@H]2CC(=O)N(CCC3CN(S(=O)(=O)C(F)(F)F)c4ccccc43)C[C@@H]21 (stereo partly specified) | inactive: > 100 µM
COc1cc2c(cc1OC)C(=O)/C(=C/c1ccc(Cl)cc1)CC2 | inactive: > 10 µM
CCNCCCNc1c2ccccc2nc2ccccc12 | active: 0.668 µM
CC(C)CCCC(C)[C@H]1CCC2[C@@H]3CCC4Nc5nocc5C[C@]4(C)C3CC[C@@]21C (stereo partly specified) | inactive: 30.9 µM
Cc1nc(-n2nc(-c3ccccc3)cc2-c2ccccc2)sc1C(=O)/C=C/c1ccc(/C=C/C(=O)c2sc(-n3nc(-c4ccccc4)cc3-c3ccccc3)nc2C)cc1 | inactive: 24.3 µM
O=C1c2ccccc2N2OC3(N4CCCC4)CCCCC3C12c1ccccc1 (stereo unspecified) | inactive: > 100 µM
C/C=C(/CCCCNCCCC)[Si](C)(C)C | inactive: 14.4 µM
CCCc1onc(CCC(=O)N(Cc2ccccc2)Cc2ccccc2)c1CC | inactive: > 100 µM
N#C/N=C(/N)NCO | inactive: > 100 µM
C1=C(CC2=C[P+](c3ccccc3)(c3ccccc3)C=C(c3ccccc3)O2)OC(c2ccccc2)=C[P+]1(c1ccccc1)c1ccccc1 | active: 0.538 µM
Cc1ccc(C)c(COCCOCn2cc(Br)c(N)nc2=O)c1 | inactive: > 100 µM
Cc1cc(NS(=O)(=O)c2ccc(NC(=O)c3cccc4c(Nc5ccc(S(=O)(=O)Nc6cc(C)on6)cc5)c5ccccc5nc34)cc2)no1 | inactive: 43.8 µM
COC(CN(C(=O)c1ccccc1)C1CCC2(SCCS2)c2[nH]c3ccccc3c21)OC (stereo unspecified) | inactive: 35.8 µM
CC1CC/C(=C\c2ccc(Cl)cc2)c2nc(N)c(C#N)c(-c3ccc(Cl)cc3)c21 (stereo unspecified) | inactive: > 100 µM
CCCCSC(=CC(=O)c1cccc(C(=O)C=C(SCCCC)SCCCC)n1)SCCCC | inactive: > 100 µM
Nc1cc2c(cc1[N+](=O)[O-])[nH]c1c(-c3ccccc3)nccc12 | inactive: 17.8 µM
Cc1nnc2cc(C(=O)O)c3ccccc3n2c1=O | inactive: > 10 µM
ClCC1(CCl)COC1 | inactive: > 100 µM
O=C1CC[C@@H](S(=O)(=O)c2ccccc2)[C@H](/C=C/c2ccccc2)O1 | inactive: > 100 µM
COC[n+]1cc2cc(OC)c(OC)cc2c2ccc3cc(OC)c(OC)cc3c21 | inactive: > 100 µM
N#C[BH2-][n+]1cn(C2CC(O)C(COP(=O)(O)OC3CC(n4ccc(N)nc4=O)OC3CO)O2)c2nc(N)[nH]c(=O)c21 (stereo unspecified) | inactive: > 100 µM
CC(=O)OCC1=C(C(=O)O)N2C(=O)C(NC(=O)CSc3ccncc3)C2SC1 (stereo unspecified) | inactive: > 100 µM

SMILES | GI50
Cc1ccc(S(=O)(=O)NNC(=S)Nc2cccc3ccccc23)cc1 | inactive: > 100 µM
COc1ccc(NC(C)=O)cc1C1CCC(=O)N1 (stereo unspecified) | inactive: > 100 µM
Cc1nn(CNc2ccc(F)c(Cl)c2)c(=S)n1/N=C/c1ccc(-c2ccc(Cl)cc2Cl)o1 | inactive: 18.6 µM
Cc1ccc(CC(Cc2ccc(C)cc2C(=O)O)C(=O)O)cc1 (stereo unspecified) | inactive: > 100 µM
COC(=O)[C@@H](NC(=O)N(Cc1ccccc1)C[C@H](CC(C)C)NC(=O)[C@@H](NC(=O)OC(C)(C)C)C(C)C)C(C)C | inactive: > 100 µM
CCN1C(=O)C(=C/C=C/c2ccc([N+](=O)[O-])cc2)C(=O)N(CC)C1=S | inactive: > 100 µM
COc1c2occc2c(OC)c2c(=O)c(S(=O)(=O)NC(=O)Nc3ccc(Cl)cc3)coc12 | inactive: > 10 µM
CN(NC(=O)c1cccs1)C1=NCCCCN1 | inactive: > 100 µM
COc1cccc2c1C(=O)C1(O)CCCCC21 (stereo unspecified) | inactive: > 100 µM
CSc1nc2c(ncn2C2OCC(O)C(O)C2O)c(=O)[nH]1 (stereo unspecified) | inactive: > 100 µM
Oc1ncc(Cl)c(O)n1 | inactive: > 100 µM
COc1ccc(-c2onc(-c3ccc([N+](=O)[O-])cc3)c2C2=NCCN2)cc1 | inactive: 36.6 µM
Cc1ccc(S(N)(C(=O)Nc2cccc3ccccc23)[N+](=O)[O-])cc1 (stereo unspecified) | inactive: > 100 µM
O=C1/C(=C/c2ccco2)NC(=S)N1CN1CCOCC1 | inactive: > 100 µM
CC1=NN(C(=O)CC(=O)Nc2cccc(Cl)c2)C(=O)C1/N=N\c1ccc(S(=O)(=O)c2ccc(/N=N/C3C(=O)N(C(=O)CC(=O)Nc4cccc(Cl)c4)N=C3C)cc2)cc1 (stereo unspecified) | inactive: > 100 µM
COc1ccc(C2(CN(C)C)COc3cc(OC)c(OC)cc3C2=O)cc1OC (stereo unspecified) | inactive: > 100 µM
COc1ccc(/C=C\c2cc(OC)c(OC)c(OC)c2)cc1OC(=O)CCC(=O)O | active: < 0.0001 µM
CO/C(N)=C(C#N)/N=C/c1cccs1 | inactive: 49.9 µM
N#CC(C(=O)CCC(=O)Nc1ccc(Cl)c(Cl)c1)c1ccc(Cl)cc1 (stereo unspecified) | inactive: > 100 µM
O=C(C#Cc1cn(C2CC(O)C(CO)O2)c(=O)[nH]c1=O)c1ccccc1 (stereo unspecified) | inactive: > 100 µM
COc1c2c(cc3c1C1(O)Cc4ccc5c(c4C[N+]1(C)CC3)OCO5)OCO2 (stereo unspecified) | inactive: 91.4 µM
O=c1oc2ccc(Cl)cc2c2ccccc12 | inactive: > 100 µM

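48-hour exposure; five concentrations; linearly interpolated endpoints. Here, GI50 denotes the concentration required for 50% inhibition of growth.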 Active and inactive are the calls of the source. No stated cut-off is given here; in the data, active = GI50 up to about 1.1 µM and inactive = higher.
